Data from PMC4336329 (PLoS ONE, 2015).
About 14,000 (4.5%) of roughly 310,000 compounds showed an effect of 50% or more. The effect is printed as a negative number. The list shows a part of the results.

target: human ether-à-go-go-related gene (hERG) potassium channel (human, UniProt Q12809); test: primary screen, population patch clamp on CHO cells stably expressing hERG
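Note: peak tail current of the secondary pulse compared with the same well before compound.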

Sequence of human ether-à-go-go-related gene (hERG) potassium channel (Q12809 whole entry, looked up): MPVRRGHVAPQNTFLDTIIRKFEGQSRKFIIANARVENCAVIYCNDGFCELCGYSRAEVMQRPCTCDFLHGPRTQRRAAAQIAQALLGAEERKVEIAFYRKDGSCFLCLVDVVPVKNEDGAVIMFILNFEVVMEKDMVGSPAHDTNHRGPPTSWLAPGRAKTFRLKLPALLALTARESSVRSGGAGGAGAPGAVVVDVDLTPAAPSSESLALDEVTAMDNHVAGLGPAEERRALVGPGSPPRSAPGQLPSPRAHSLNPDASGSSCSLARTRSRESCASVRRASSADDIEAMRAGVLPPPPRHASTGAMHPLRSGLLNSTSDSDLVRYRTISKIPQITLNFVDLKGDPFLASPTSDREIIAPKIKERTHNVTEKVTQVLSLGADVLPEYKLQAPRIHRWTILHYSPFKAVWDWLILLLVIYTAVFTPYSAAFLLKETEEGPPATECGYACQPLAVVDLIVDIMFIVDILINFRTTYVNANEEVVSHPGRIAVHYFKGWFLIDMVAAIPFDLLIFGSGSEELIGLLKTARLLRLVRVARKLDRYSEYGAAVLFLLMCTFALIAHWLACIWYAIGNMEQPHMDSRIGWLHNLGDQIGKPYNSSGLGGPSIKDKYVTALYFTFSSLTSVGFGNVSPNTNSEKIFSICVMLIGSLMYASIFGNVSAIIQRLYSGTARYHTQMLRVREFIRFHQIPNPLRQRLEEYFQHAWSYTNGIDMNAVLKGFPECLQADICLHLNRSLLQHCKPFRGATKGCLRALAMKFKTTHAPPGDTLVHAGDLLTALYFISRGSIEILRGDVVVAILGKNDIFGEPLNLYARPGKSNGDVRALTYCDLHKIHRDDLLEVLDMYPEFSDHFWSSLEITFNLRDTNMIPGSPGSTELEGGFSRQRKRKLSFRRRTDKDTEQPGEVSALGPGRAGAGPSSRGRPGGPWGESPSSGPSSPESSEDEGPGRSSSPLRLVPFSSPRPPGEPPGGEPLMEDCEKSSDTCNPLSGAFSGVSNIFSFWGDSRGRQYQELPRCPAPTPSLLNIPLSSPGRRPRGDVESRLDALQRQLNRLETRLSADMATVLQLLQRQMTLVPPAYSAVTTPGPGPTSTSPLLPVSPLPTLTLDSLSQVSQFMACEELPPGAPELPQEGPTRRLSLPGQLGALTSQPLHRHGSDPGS

Row | SMILES | hERG current change (%, negative = inhibition) at 10uM [%]
1 | O=C1CC(NNC(=O)c2cccc(F)c2)C(=O)N1 (stereo not shown) | 17.9
2 | N/C(=N\OC(=O)Nc1ccc(Cl)c(Cl)c1)c1ncc(C(F)(F)F)cc1Cl | 1.28
3 | COc1nccnc1NS(=O)(=O)c1ccc(NC(=S)NC(=O)c2ccc(F)cc2)cc1 | 7.4
4 | Cc1ccccc1OCC(=O)Nc1ccc2c(c1)C(=O)c1ccccc1C2=O | 12.4
5 | CCc1nnc(NC(=O)CSc2nnc(C3CC3)n2C)s1 | 1.31
6 | CC(=O)Nc1ccc(S(=O)(=O)NCCC(=O)OC(C)C(=O)c2ccc(C)cc2)cc1 (stereo not shown) | -6.85
7 | Cc1ccc(CC(CC(=O)NCCc2ccc3c(c2)OCO3)C(=O)O)cc1 (stereo not shown) | 0.663
8 | CC(=O)c1ccc(S(=O)(=O)N2Cc3ccccc3CC2C(=O)O)cc1 (stereo not shown) | 7.05
9 | COc1cc(NC(=O)COC(=O)c2n[nH]c3ccccc23)c(C)cc1[N+](=O)[O-] | 20.4
10 | CC(=O)Nc1ccc(OCC(O)CN2CCN(S(=O)(=O)c3ccc(NC(C)=O)cc3)CC2)cc1 (stereo not shown) | -8.63
11 | O=C(CSc1nc2ccc(Nc3nc(N4CCOCC4)nc(N4CCOCC4)n3)cc2s1)Nc1ccccc1Cl | 13
12 | O=C(NCC(c1ccco1)N1CCN(c2ccccc2F)CC1)c1ccc2c(c1)OCO2 (stereo not shown) | -20.8
13 | CC1CCN(c2cc(N)c(Cl)cc2[N+](=O)[O-])CC1 | -4.38
14 | O=C(C1CCC(CNS(=O)(=O)c2cccc3nsnc23)CC1)N1CC=C(c2ccccc2)CC1 (stereo not shown) | -10.3
15 | Cc1ccc(-c2nnn(C(C)C(=O)N3c4ccccc4CCc4ccccc43)n2)cc1 (stereo not shown) | 6.37
16 | O=C(Nc1cccc(C(=O)N2CCN(c3ccc(F)cc3)CC2)c1)c1ccccc1 | -58.7
17 | CCOC(=O)COn1c(=O)c(-c2ccc(Cl)cc2)[n+]([O-])c2ccccc21 | -4.24
18 | COc1ccc(N/C=C/C(=O)c2ccc(C)cc2)c([N+](=O)[O-])c1 | 16.9
19 | COc1cccc(NC(=O)NC2CCN(CC(=O)Nc3ccccc3[N+](=O)[O-])CC2)c1 | -39.4
20 | Cc1ccc(N2C(=O)C(NC(=O)c3c(F)cccc3F)(C(F)(F)F)C3=C2CC(C)(C)CC3=O)cc1 (stereo not shown) | 9.34
21 | CCOC(=O)C1=C(CC)OC(N)=C(C#N)C1c1ccc(OC)c(OC)c1OC (stereo not shown) | 0.305
22 | O=C(O)/C(=C\c1ccc(Cl)cc1)c1ccc(F)cc1 | 4.73
